# Source: PubChem BioAssay AID686978 (National Center for Advancing Translational Sciences (NCATS), 2013)
# Several values for one entry are separate records, joined by “and”; a condition that tells them apart may be missing. Equal entries are not always repeated. In all, about 420,000 compounds went through this assay and about 64,000 (15%) were called active. The inconclusive results got no clear call from the source; some entries with a clear call stand among them for comparison. The call rests on the fitted dose curve; in most records, active means well fitted inhibition curve with a large enough effect; inconclusive means small, poorly fitted or top-dose-only effect; inactive means flat fitted curve, though single readings scatter. Potencies of inconclusive entries are doubtful fits and often do not repeat.
# Experiment: qHTS for Inhibitors of human tyrosyl-DNA phosphodiesterase 1 (TDP1): qHTS in cells in absence of CPT; further: nearly all actives have a fitted effect of over 55% in size
# Conditions: DT40 Tdp1-/- hTDP1 cells, no CPT, ATP luminescence, 48 h; activity change, negative = growth inhibition: at 46.2 µM (top of the series)
# Procedure, shortened: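 DT40 Tdp1-/-;hTDP1 cells, no CPT (DMSO vehicle only), 400 cells/well; compounds pin-transferred; ≥48 hr, 37 °C; CellTiter-Glo 30 min RT dark, luminescence read.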
# On the % scale 0 is the no-effect control and ±100 the full control effect; potency means the concentration at half of the fitted maximal effect; tags describe the fitted curve by direction and shape.
Compound,"activity change, negative = growth inhibition",Potency
COc1cc(C(=O)Nc2cccc(-c3nc4cc(C)cc(C)c4o3)c2)cc(OC)c1OC,inactive: -27.5%,
CCOc1ccccc1NC(=O)CCNC(=O)N1CC(=O)Nc2ccccc21,inactive: -9.34%,
Clc1ccsc1-c1csc(-c2cccnc2)n1,,"inconclusive: 29.1 µM [inhibitor, single point]"
COc1cc(NC(=S)NCc2ccc(S(N)(=O)=O)cc2)cc(OC)c1,inactive: -21.2%,
COc1cccc2cc(-c3nc(Nc4cccc(C)c4)sc3C)c(=O)oc12,,"inconclusive: 20.6 µM [inhibitor, single point]"
Cn1nnnc1SCC(=O)Nc1cc(S(=O)(=O)N2CCCC2)ccc1Cl,inactive: -0.0074%,
CCCCN(C)C(=S)Nc1ccc2nc3n(c(=O)c2c1)CCCCC3,inactive: -8.03%,
CCOc1cc(Cl)c(S(=O)(=O)NCc2cccnc2)cc1Cl,,"inconclusive: 16.4 µM [inhibitor, single point]"
O=C(c1cccs1)c1cn(CCOc2ccccc2F)c2ccccc12,,active: 18.4 µM
Cc1nonc1OCCNc1ccc([N+](=O)[O-])cc1[N+](=O)[O-],,"inconclusive: 23.1 µM [inhibitor, single point]"
N/C(CSc1ccc(Cl)cc1)=N\NC(=O)c1ccncc1,,"inconclusive: 16.4 µM [inhibitor, partial curve]"
O=C(Nc1cccc(S(=O)(=O)N2CCCCC2)c1)c1ccc2ccccc2n1,,active: 20.6 µM
CC(=O)c1cccc(NC(=O)c2nc3ccccc3n(C)c2=O)c1,,active: 10.3 µM
CC(=O)Nc1ccc(OCC(O)CN2C(C)(C)CC(O)CC2(C)C)cc1 (configuration not stated),inactive: 5.08%,
C/C(=N/OCC(=O)NCCCCCCNC(=O)CO/N=C(/C)c1cccs1)c1cccs1,,"inconclusive: 29.1 µM [inhibitor, single point]"
CCN(CC)C(=O)CSc1nc2ccccc2c(=O)n1OC(C)C,,"inconclusive: 20.6 µM [inhibitor, single point]"
Cc1cc(Br)ccc1NC(=O)CN(C)C(=O)c1cc([N+](=O)[O-])ccc1N1CCOCC1,inconclusive: -32.5% [inhibitor],
CCN=C1S/C(=C/c2ccc(-c3ccc(F)cc3)o2)C(=O)N1CC,,"inconclusive: 29.1 µM [inhibitor, single point]"
COc1ccc(NC(=O)Nc2cccc3c2O[C@H](CN(C)S(=O)(=O)c2cccs2)[C@@H](C)CN([C@H](C)CO)C3=O)cc1,,"inconclusive: 29.1 µM [inhibitor, single point]"
COc1cccc(-c2nc3cc4c(cc3cc2CN(C(=O)c2cc(C)nn2C)C2CC2)CCC4)c1OC,,active: 16.4 µM
CC(C)c1ccc(S(=O)(=O)c2nnn3c2nc(N2CCN(C)CC2)c2sccc23)cc1,,"inconclusive: 25.9 µM [inhibitor, single point]"
O=C(C1CCN(S(=O)(=O)c2ccccc2)CC1)N1CCN(Cc2ccc3c(c2)OCO3)CC1,,"inconclusive: 16.4 µM [inhibitor, single point]"
CN(C)C(=O)c1ccc(-c2ccc3ncnc(N(C)C)c3c2)cc1,,"inconclusive: 14.6 µM [inhibitor, partial curve]"
COc1ccc(N2C(=O)C3CCCN3C2=S)cc1 (configuration not stated),,"inconclusive: 23.1 µM [inhibitor, partial curve, poor fit]"

Compound,"activity change, negative = growth inhibition",Potency
CC(C)OCCCN(C)C1CCN(S(=O)(=O)c2ccc(-c3cc(C(F)(F)F)no3)s2)CC1,,"inconclusive: 29.1 µM [inhibitor, single point]"
CN(C)c1ccc(-c2nc3cc(N)ccc3o2)cc1,inactive: 6.99%,
Brc1ccc2[nH]c3c(NCc4ccccn4)ncnc3c2c1,,"inconclusive: 29.1 µM [inhibitor, single point]"
Cc1ccsc1C(=O)C1CCCN(Cc2cn(C)nc2-c2ccccc2)C1 (configuration not stated),,"inconclusive: 23.1 µM [inhibitor, single point]"
CN(c1ccccc1)S(=O)(=O)c1cccc(NC(=O)c2ccncc2)c1,,active: 8.2 µM
COc1cccc(/C=C/C(=O)OCC(=O)NCc2ccc(Cl)cc2)c1,,"inconclusive: 16.4 µM [inhibitor, single point]"
O=C(c1ccco1)N1CCC2CC1c1c(Cl)cccc12 (configuration not stated),,"inconclusive: 25.9 µM [inhibitor, single point]"
CO/N=C(\C(=O)N[C@@H]1C(=O)N2C(C(=O)O)=C(CSc3cnns3)CS[C@H]12)c1csc(N)n1,inactive: -10.7%,
COC(=O)c1cn(C(=O)c2cccc(C)c2)c2ccccc12,inactive: -1.83%,
Cc1nn2cc(-c3cccc(Cl)c3)cnc2c1Cl,,active: 14.6 µM
CCOCC(=O)Nc1cc(OC)c(Cl)cc1OC,inactive: -4.91%,
O=C(NCC1CCCO1)c1cc(-c2ccc(F)cc2)no1 (configuration not stated),,"inconclusive: 20.6 µM [inhibitor, partial curve]"
COc1ccc(CN2CCN(S(=O)(=O)c3ccccc3)CC2)c(OC)c1OC,,"inconclusive: 23.1 µM [inhibitor, single point]"
CCOc1ccc(N(C)Cc2cc(=O)oc3ccc(OCC)cc23)cc1,,"inconclusive: 29.1 µM [inhibitor, single point]"
CC(C)CN(C[C@@H](O)[C@H](Cc1ccccc1)NC(=O)O[C@H]1CO[C@H]2OCC[C@H]21)S(=O)(=O)c1ccc(N)cc1,,"inconclusive: 13.3 µM [inhibitor, single point]"
Cc1cccc(NC(=O)c2sc(Cl)nc2-c2ccccc2)c1,,active: 18.4 µM
CCCCn1c(CCl)nc2cc(S(=O)(=O)N3CCOCC3)ccc21,,active: 6.51 µM
CCOc1ccc(CNC(=O)C2CCN(S(=O)(=O)N3CCC(C)CC3)CC2)cc1OC,,"inconclusive: 29.1 µM [inhibitor, single point] and inconclusive: 16.4 µM [inhibitor, single point]"
COc1ccc(C2CC(c3ccccc3)=NN2C(=O)COC(=O)/C=C/c2ccc(O)c(OC)c2)cc1 (configuration not stated),,"inconclusive: 18.4 µM [inhibitor, single point]"
COC(=O)/C(C#N)=C\c1c(OC)[nH]c2ccccc12,,active: 9.2 µM
COc1cc(OC)cc(-c2c(-c3ccc(F)cc3)c3cc(-c4ccc5c(c4)OCCO5)ccc3n2C)c1,,"inconclusive: 4.61 µM [inhibitor, partial curve]"
Cc1ccc(S(=O)(=O)N2[C@@H](c3ccc(Cl)c(Cl)c3)C(C(=O)O)=C[C@H]2CC2CCCC2)cc1,inactive: -6.03%,
O=C(Cn1c(NCCCO)nc2ccccc21)c1ccc(Cl)cc1,,"inconclusive: 29.1 µM [inhibitor, single point]"
CC1CCN(CC(=O)Nc2ccccc2C(=O)c2ccccc2)CC1,,active: 14.6 µM

Compound,"activity change, negative = growth inhibition",Potency
COc1ccc(C(O)P(=O)(OCC(C)C)OCC(C)C)c(OC)c1 (configuration not stated),inactive: -2.69%,
CCCc1cc(=O)n2[nH]c(NC(=O)c3ccc(C(C)(C)C)cc3)nc2n1,inactive: -3.82%,
CN(C)/C=C(\C#N)C(=O)Nc1ccc(O)cc1F,inactive: -16.5%,
COC(=O)c1ccccc1NC(=O)N1CCN(c2ccc(F)cc2)CC1,,"inconclusive: 29.1 µM [inhibitor, single point]"
Cc1ccc(Cc2c(-c3cccc(Cl)c3)nc3cc(C)c(Br)c(C)n23)cc1,,"inconclusive: 25.9 µM [inhibitor, single point]"
Cc1cc(OCC(=O)N2CCN(c3ccccn3)CC2)cc(C)c1Br,,active: 16.4 µM
O=C(Nc1cccc(F)c1)C1CCCN1S(=O)(=O)c1cccc2cccnc12 (configuration not stated),,"inconclusive: 18.4 µM [inhibitor, partial curve]"
Cc1cccc(CNS(=O)(=O)c2ccc(-c3cnc(C4CC4)o3)cc2)c1,,active: 16.4 µM
COc1ccc(C(CC(=O)c2ccc(C)cc2)C(C#N)C#N)cc1OC (configuration not stated),,active: 5.17 µM
CCOC(=O)c1c(NC(=S)SC)sc(C(=O)N2CCc3ccccc3C2)c1C,,"inconclusive: 18.4 µM [inhibitor, single point]"
CC(=N\Nc1ccc(Cl)cc1)/C(=N/O)C(=O)Nc1ccccc1,inactive: -20.3%,
O=C(NCCc1ccc(Cl)cc1)Nc1ccc(F)cc1,,"inconclusive: 25.9 µM [inhibitor, partial curve, poor fit]"
O=C(N(Cc1ccccc1)c1ccccn1)C12CC3CC(CC(C3)C1)C2,,active: 16.4 µM
O=C(/C=C/c1ccc(F)cc1)NC(=S)NNC(=O)c1cccnc1,,"inconclusive: 25.9 µM [inhibitor, single point]"
O=C(CCNS(=O)(=O)c1ccc(Cl)cc1)NCCc1ccccc1,,"inconclusive: 29.1 µM [inhibitor, single point]"
CCOC(=O)c1c(CN2CCCCC2)n(C)c2cc(Br)c(OC)cc12,,active: 11.2 µM
CCc1ccccc1NC(=O)CSc1nnc([C@H](CCSC)NC(=O)OC(C)(C)C)o1,inactive: -22.5%,
O=C(c1cccc(S(=O)(=O)N2CCOCC2)c1)N(CCc1ccccc1)Cc1ccccc1,,"inconclusive: 29.1 µM [inhibitor, single point]"
Cc1ccc(S(=O)(=O)SC/C=C/CSS(=O)(=O)c2ccc(C)cc2)cc1,,active: 14.6 µM
Cn1ccc2cc(S(=O)(=O)N3CCCC(C(=O)NCc4ccccc4)C3)ccc21 (configuration not stated),inactive: 5.59%,
COCC(C)NC(=O)CSc1nc2nn(-c3ccccc3)c(=O)c-2c2n1CCCCC2 (configuration not stated),inactive: -22.2%,
Cc1nc2ccccc2n1CC(O)COC1CCCCC1 (configuration not stated),,active: 20.6 µM
Cc1cccc(C2C3=C(Nc4[nH]n(-c5ccccc5)c(=O)c42)c2ccccc2C3=O)c1 (configuration not stated),,"inconclusive: 8.2 µM [inhibitor, partial curve]"
O=C(N/N=C/c1ccccn1)c1cc(Br)ccc1O,,"inconclusive: 25.9 µM [inhibitor, single point]"
